Data as given in PubChem BioAssay AID652104 (National Center for Advancing Translational Sciences (NCATS), 2013).
Out of some 410,000 compounds screened, about 7,200 (1.8%) were called active. The shares of active, inactive and inconclusive entries below differ from those in the screen. Calls follow the shape of the dose curve; as a rule, active = well fitted activation curve with a large enough effect; inconclusive = small, poorly fitted or top-dose-only effect, or another doubt; inactive = no such curve, though single readings can be large or run the other way. A potency beside an inconclusive call is a rough fit, not a confirmed value.

Assay: qHTS of TDP-43 Inhibitors; also: nearly all actives have a fitted effect of over 50% in size; as to growth rescue (activation): % of control where 0% means no effect
Conditions: TDP-43 expressing yeast growth rescue, BacTiter-Glo, 24 h; growth rescue (activation): at 46.1 µM (top of the series) unless noted
Procedure, shortened: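 Galactose-induced TDP-43 yeast, OD600=0.02, compound pinned; 24 hr, 30 deg C; BacTiter-Glo luminescence for growth. Inhibitors of TDP-43 toxicity read as activators.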
Potency is read from the fitted curve at half-maximal effect; tags tell the direction and shape of the fitted curve.

Growth rescue (activation), inactive:
CC(C)C1C(=O)N(Cc2cn(CCC3OCCCO3)nn2)CCS(=O)(=O)N1Cc1ccc(-c2ccc(Cl)cc2)cc1 (stereo not given) 15.7%, Cc1ccn2c(Nc3c(C)cccc3C)c(-c3ccc(Cl)s3)nc2c1 25%, CCOc1ccc(-n2c(Cc3ccccc3)nnc2SCc2nc(-c3cccs3)no2)cc1 5.07%, CN(C)C(CNC(=O)c1ccc(NS(=O)(=O)c2cccc([N+](=O)[O-])c2)cc1)c1ccco1 (stereo not given) 1.5%, CSc1ccccc1C(=O)C1CCCN(S(=O)(=O)N(C)C)C1 (stereo not given) 8.67%, CCOc1ccc(-n2c(=O)c3c4c(sc3n(CC(=O)NC(C)CC)c2=O)CCC4)cc1 (stereo not given) 5.54%, COc1cc(C(=O)NCC2CCCO2)ccc1OCc1ccccc1 (stereo not given) 2.95%

Potency, active:
COC(=O)c1ccc2nc(-c3ccco3)c(Cc3cccc(F)c3)n2c1 14.1 µM, Oc1ccc(C[C@H]2CNC(=S)N2CC2CCCN2C[C@H](Cc2ccc(O)cc2)N2C[C@H](Cc3ccc(O)cc3)N(CC3CCCCC3)C2=S)cc1 (stereo not given in full) 11.2 µM

Potency, inconclusive:
Cc1cccc(NC(=S)N/N=C/c2ccc([N+](=O)[O-])s2)c1 35.5 µM [activator, single point], CCOC(=O)CSc1cc(=O)n(CC)c2ccccc12 20 µM [activator, partial curve], C=CCNC(=S)Nc1sc2c(c1C#N)CCCC2 2.51 µM [activator, full curve], COCCN(CCOC)C(=O)c1cc2sc3ccccc3c2s1 15.8 µM [activator, single point], COc1cccc(-c2nc(NC(C)(C)C)c3ccccc3n2)c1O 8.91 µM [activator, partial curve], CC(=O)Nc1cccc(NC(=O)CCNC(=O)c2ccccc2)c1 17.8 µM [activator, single point], Cc1ccsc1/C=N/n1c(-c2ccccc2)n[nH]c1=S 4.47 µM [activator, full curve, poor fit], CN(C)S(=O)(=O)N(CC(=O)NCCSCc1cccc(Cl)c1)c1ccccc1 28.2 µM [activator, single point], CCC(=O)Nc1ccc2nc(SCc3ccccc3)sc2c1 8.91 µM [activator, partial curve, poor fit], CCn1c(C)c(C)c2cc(C(=O)N3CCN(c4cccc(C)c4C)CC3)ccc21 35.5 µM [activator, single point], Cc1cccc2c(=O)c(C(=O)NCCc3ccccc3)c[nH]c12 3.98 µM [activator, single point]
